Laboratory results reported in the supplement of paper PMC4967469.
Lines with a small IC50 respond at low doses; a limit (>, <) means that the fit lies beyond the doses tested. The AUC spans the tested range (256-fold, ending at the top dose) of the same fit; values near 1 show little effect. For some assays here: The top dose, if marked as inferred, is not printed in the source and was worked back from the curve model.

Assays:
Assay in all cases: Viability of human cancer cell lines after 72 h of drug (GDSC screen)
Roscovitine = compound: CC[C@H](CO)Nc1nc(NCc2ccccc2)c2ncn(C(C)C)c2n1 [Roscovitine]; conditions: top dose 16 µM; top dose inferred
Protocol: (§1)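 Human cancer cell lines in 384-well plates, medium with 10% serum, drug for 72 h over a 256-fold dose range (nine 2-fold or five 4-fold steps up to the top dose). Adherent lines were fixed and stained with the nucleic acid dye Syto60, suspension lines read with resazurin; signal relative to control wells, capped at 0 and 100%. One two-parameter sigmoid per drug and line, fitted in a mixed model over all curves with the slope shared within a line.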

Midostaurin = compound: CO[C@@H]1[C@H](N(C)C(=O)c2ccccc2)C[C@H]2O[C@]1(C)n1c3ccccc3c3c4c(c5c6ccccc6n2c5c31)C(=O)NC4 [Midostaurin]; conditions: top dose 0.512 µM; top dose inferred
Protocol: as §1

Mitomycin C = compound: CO[C@@]12[C@H](COC(N)=O)C3=C(C(=O)C(C)=C(N)C3=O)N1C[C@@H]1N[C@@H]12 [Mitomycin C]; conditions: top dose 16 µM
Protocol: as §1

Bosutinib = compound: COc1cc(Nc2c(C#N)cnc3cc(OCCCN4CCN(C)CC4)c(OC)cc23)c(Cl)cc1Cl [Bosutinib]; conditions: top dose 2 µM
Protocol: as §1

NVP-BHG712 = compound: Cc1ccc(C(=O)Nc2cccc(C(F)(F)F)c2)cc1Nc1nc(-c2cccnc2)nc2c1cnn2C [NVP-BHG712]; conditions: top dose 10.24 µM; top dose inferred
Protocol: as §1

IOX2 = compound: O=C(O)CNC(=O)c1c(O)c2ccccc2n(Cc2ccccc2)c1=O [IOX2]; conditions: top dose 0.1 µM; top dose inferred
Protocol: as §1

Row | Cell Line | AUC (Roscovitine) | IC50 (Roscovitine) [nM] | AUC (Midostaurin) | IC50 (Midostaurin) [nM] | AUC (Mitomycin C) | IC50 (Mitomycin C) [nM] | AUC (Bosutinib) | IC50 (Bosutinib) [nM] | AUC (NVP-BHG712) | IC50 (NVP-BHG712) [nM] | AUC (IOX2) | IC50 (IOX2) [nM]
1 | TE-8 (oesophagus, adherent) | 0.909 | > 16000 | 0.921 | > 512 | 0.131 | < 62.5 | 0.957 | > 2000 | 0.921 | > 10200 | 0.972 | > 100
2 | TE-9 (oesophagus, adherent) | 0.886 | > 16000 | 0.872 | > 512 | 0.376 | 447 | 0.95 | > 2000 | 0.987 | > 10200 | 0.984 | > 100
3 | TE-12 (oesophagus, suspension) | 0.932 | > 16000 | 0.881 | > 512 | 0.26 | 175 | 0.806 | 1290 | 0.947 | > 10200 | 0.98 | > 100
4 | TE-15 (oesophagus, suspension) | 0.982 | > 16000 | 0.853 | 485 | 0.176 | 89.5 | 0.819 | 1330 | 0.947 | > 10200 | 0.982 | > 100
5 | TGBC1TKB (biliary tract, adherent) | 0.978 | > 16000 | 0.953 | > 512 | 0.527 | 1190 | 0.989 | > 2000 | 0.969 | > 10200 | 0.988 | > 100
6 | TGW (neuroblastoma, adherent) | 0.915 | > 16000 | 0.95 | > 512 | 0.67 | – | 0.991 | > 2000 | 0.886 | 8520 | 0.984 | > 100
7 | TUR (B-cell lymphoma, suspension) | 0.985 | > 16000 | 0.853 | 354 | 0.256 | 213 | 0.959 | > 2000 | 0.89 | 10200 | 0.984 | > 100
8 | U-87-MG (glioma, adherent) | 0.971 | > 16000 | 0.941 | > 512 | 0.543 | 1340 | 0.965 | > 2000 | 0.955 | > 10200 | 0.98 | > 100
9 | U-698-M (B-cell leukaemia, suspension) | 0.968 | > 16000 | 0.986 | > 512 | 0.57 | 1560 | 0.931 | > 2000 | 0.838 | 6950 | 0.986 | > 100
10 | VA-ES-BJ (soft tissue, adherent) | 0.905 | > 16000 | 0.805 | 277 | 0.194 | 115 | 0.931 | > 2000 | 0.946 | > 10200 | 0.969 | > 100
11 | VAL (B-cell lymphoma, suspension) | 0.896 | > 16000 | 0.915 | > 512 | 0.227 | 160 | 0.844 | 1440 | 0.584 | 1090 | 0.985 | > 100
12 | VCaP (prostate, adherent) | 0.95 | > 16000 | 0.927 | > 512 | 0.594 | 1830 | 0.987 | > 2000 | 0.917 | > 10200 | 0.985 | > 100
13 | WIL2-NS (lymphoid neoplasm, suspension) | 0.919 | > 16000 | 0.96 | > 512 | 0.098 | 71.6 | 0.977 | > 2000 | 0.816 | 4390 | 0.992 | > 100
14 | WSU-DLCL2 (B-cell lymphoma, suspension) | 0.992 | > 16000 | 0.954 | > 512 | 0.178 | 136 | 0.955 | > 2000 | 0.931 | > 10200 | 0.307 | 2
15 | WSU-NHL (lymphoid neoplasm, suspension) | 0.987 | > 16000 | 0.881 | 425 | 0.257 | 224 | 0.803 | 851 | 0.705 | 2230 | 0.99 | > 100
16 | YT (lymphoid neoplasm, suspension) | 0.987 | > 16000 | 0.852 | 308 | 0.374 | 476 | 0.992 | > 2000 | 0.831 | 5160 | 0.992 | > 100
17 | no-10 (glioma, adherent) | 0.907 | > 16000 | 0.965 | > 512 | 0.352 | 353 | 0.983 | > 2000 | 0.979 | > 10200 | 0.971 | > 100
18 | no-11 (glioma, adherent) | 0.949 | > 16000 | 0.923 | > 512 | 0.707 | 4510 | 0.908 | > 2000 | 0.931 | > 10200 | 0.94 | > 100
